# The full ranking holds about 33,000 sequences; the median of “E-score (-0.5 to 0.5)” is about -0.036, and the highest 2% start at about 0.37. The list shows a part of the results.
# Molecular target: T1, Yer064c (UniProt P40041)
# T1 sequence: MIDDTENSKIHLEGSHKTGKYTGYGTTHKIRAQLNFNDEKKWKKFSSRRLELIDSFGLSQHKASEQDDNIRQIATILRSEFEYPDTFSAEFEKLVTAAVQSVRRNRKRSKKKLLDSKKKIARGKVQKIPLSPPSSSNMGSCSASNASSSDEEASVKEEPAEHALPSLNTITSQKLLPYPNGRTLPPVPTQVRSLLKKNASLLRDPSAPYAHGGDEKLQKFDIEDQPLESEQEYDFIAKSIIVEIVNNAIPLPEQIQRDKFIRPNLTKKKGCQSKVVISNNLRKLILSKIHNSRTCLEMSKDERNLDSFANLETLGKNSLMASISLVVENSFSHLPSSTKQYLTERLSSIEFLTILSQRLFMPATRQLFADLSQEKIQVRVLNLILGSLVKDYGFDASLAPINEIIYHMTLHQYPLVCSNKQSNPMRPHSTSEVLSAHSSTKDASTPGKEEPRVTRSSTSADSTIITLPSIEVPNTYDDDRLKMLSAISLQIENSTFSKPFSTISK
# Assay: PBM E-score (8-mer binding enrichment) (E-score (-0.5 to 0.5)); higher = stronger / more preferred TF binding; most listed sequences are background and not binding sites
# Conditions: protein concentration: 200 nM; construct: GST-full length
# How it was run: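 Yeast transcription factors carrying a GST tag, as full-length proteins or DNA-binding domains, were produced by PURExpress in vitro transcription/translation. About 100-200 nM protein was applied to universal all-10-mer Agilent arrays, double-stranded by primer extension on fresh or once-stripped slides. Bound protein was detected with fluorescent anti-GST, and scans were normalised with masliner. The Universal PBM Analysis Suite gave each ungapped eight-base word, pooled with its reverse complement, an E-score, a modified Wilcoxon-Mann-Whitney statistic.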
row,Sequence,PBM E-score
1,TACCGTCA,-0.251
2,AAAGTTGC,-0.226
3,TAGCTCAA,0.0744
4,AAGGGGGA,-0.255
5,AGGTCTTG,-0.184
6,TGGCAACA,-0.164
7,CGGAGGAA,-0.234
8,ATTGTATA,0.0405
9,AATCCAGT,0.0306
10,CAACAGGC,-0.111
11,CCTTAGGA,0.0314
12,TATTTCAA,0.128
13,CGATCATC,0.0321
14,TTGCACAA,-0.00909
15,AGGCTAGG,-0.237
16,AAGGCGGT,-0.00732
17,AGCATGTG,-0.137
18,CATGATGA,0.261
19,TACGCGAA,-0.0629
20,AAGTATCG,-0.0984
21,CCGCTAAA,-0.152
22,CCCAGCCC,-0.256
23,GGATCCAA,-0.126

row,Sequence,PBM E-score
1,CGCGGAAG,-0.0164
2,GCATTGCC,-0.271
3,GGAACGTA,-0.231
4,AATAGTTC,-0.0167
5,ACCGGTGC,0.0386
6,AATAACTC,0.15
7,GCATCCCC,-0.265
8,ACGTGTAG,-0.0603
9,ACCACGTG,-0.123
10,AACGGGAA,-0.137
11,GCATACAA,-0.207
12,GGACTCTA,0.193
13,ACGGCGAG,0.0206
14,ATATCGGG,-0.0749
15,TCAAATGA,0.236
16,AATGAAGT,0.166
17,GAATAAAA,-0.00317
18,CGTCGGTA,-0.123
19,AGTCACCC,0.479
20,AGGGCAGC,0.0303
21,AAACATGG,0.0755
22,ATGCACAA,0.0625
23,TCCTAAGA,-0.00633

row,Sequence,PBM E-score
1,GTTGTAAA,0.1
2,ATATGATG,0.0154
3,GCTTGATA,-0.101
4,ACCAGCGC,-0.221
5,TGTGATAA,0.199
6,AAGTGCAA,-0.0297
7,TGATTCAA,0.466
8,CACATGGA,0.0811
9,CAACCGGG,-0.193
10,ATGAATAC,0.13
11,TCGCCCAA,-0.079
12,ACGCGCGG,-0.0883
13,ACAATCGA,0.0432
14,ACAAAGTG,-0.0222
15,TATACTGA,0.228
16,CTCATAGA,0.155
17,AGATAATG,-0.0327
18,CGTTTGCC,-0.0968
19,GCCATCGC,-0.108
20,ATGAGGAC,-0.0901
21,CACGCCGG,-0.036
22,TGAAAAAA,0.104
23,ATTATTAA,0.168

row,Sequence,PBM E-score
1,GCATCACC,-0.165
2,TTCCTAAA,0.0987
3,GGTGACAA,-0.0376
4,AGAAGTCC,-0.056
5,CCGGCCGG,-0.13
6,CTGAACGC,-0.149
7,CAATACGC,-0.135
8,AGGTGAGG,-0.0178
9,CCCGGCAA,-0.166
10,GCCCTGCC,-0.34
11,AGCGCGCT,-0.292
12,GCTTGCCA,-0.134
13,TCGGCGAA,0.0541
14,ACTACTAG,0.14
15,AGGTATTA,-0.00014
16,ATTAAGTC,0.317
17,CATAATCG,0.109
18,AAGAGGTG,-0.114
19,CTACCGCA,-0.00712
20,ACTCTAAA,0.267
21,CTGAAGTC,0.278
22,CAAGAACA,-0.0972
23,ATCTCCGC,-0.0564

row,Sequence,PBM E-score
1,GGTATGTA,-0.0863
2,ACCCATCT,0.182
3,CCACTTGC,-0.243
4,CTCCGAAA,-0.0419
5,CGCAAAGC,-0.278
6,ACGAGGGA,-0.239
7,GAGATGGA,-0.0342
8,CGTCGGAA,-0.162
9,AAATGAAA,0.128
10,AGGCTTAA,0.0942
11,CGACTCGA,0.361
12,AGCCCATA,0.0485
13,GACTGTGA,0.341
14,GGCCGCCA,-0.119
15,CCATCTCC,-0.0237
16,AGCTCTTA,-0.133
17,CTAGATGC,-0.103
18,AGGATTCC,0.0611
19,AGGAACCT,-0.132
20,ATAGGCAA,-0.0944
21,ACTCGCTC,0.287
22,ATGTTATA,-0.0918
23,CTCAGGAA,0.0377

row,Sequence,PBM E-score
1,GATTAGGA,0.171
2,TTAAGCAA,0.0137
3,CTGAGACA,0.351
4,AGTTTAAG,0.178
5,CCGCGTTA,-0.0952
6,ATCCAGTG,0.0898
7,ACGTCGGG,-0.327
8,GCCGGACA,-0.139
9,CTCCTGGA,-0.0118
10,GCGCTCGA,-0.0795
11,TAATTCTA,0.00914
12,AGATAGTC,0.403
13,ATTCATCC,0.119
14,AAAAGGTT,-0.0197
15,CAGTGATC,0.0804
16,CCCTGAGG,-0.17
17,CCATAATA,0.0678
18,TCTAGAGA,-0.0362
19,CGTATTAG,0.11
20,ATGTCGGA,-0.0825
21,GAATTACA,-0.0397
22,GCGGGAAA,-0.147
23,AGATCGAA,0.0949

row,Sequence,PBM E-score
1,CTCTCGCC,-0.26
2,GGCTGAAA,-0.0505
3,AGTGGCCG,-0.255
4,CGTGACCC,0.0177
5,GTTTCTTA,0.086
6,CCCATCGC,0.0146
7,ACGGTTAT,-0.219
8,CAATGAGA,0.0849
9,ACCGTCCT,-0.281
10,CCTTGGAG,-0.04
11,AGGTAGTG,-0.0767
12,AAATTGGA,0.0087
13,ACCAGGTA,-0.247
14,AACGATTG,0.0264
15,GAGAAACA,0.028
16,CGGAGGGA,-0.246
17,GCAGCGGC,-0.113
18,AAAGCCGC,-0.0734
19,CGGCCAAC,-0.0648
20,ATCCCTAA,-0.121
21,GAGTGTGA,0.224
22,CACACGTA,0.00361
23,CCGTTGCG,-0.156

# From the supplement of paper PMC3334620
